{
  "source": "PubChem BioAssay AID248",
  "about": "(DTP/NCI, 2004)",
  "tested_on": "L1210 leukemia ip in BDF1 mice, survival T/C",
  "assay": "NCI In Vivo Anticancer Drug Screen. Data for tumor model L1210 Leukemia (intraperitoneal) in B6D2F1 (BDF1) mice",
  "conditions": "vehicle: saline, higher = longer survival",
  "note": "Toxic doses and inconclusive results are not listed. Certain results were filed several times, with different values. The list is limited to them. The source may hold further records. Results that share an entry differ, and nothing given here explains why; they may come from other doses, times, organisms or constructs than stated.",
  "data": [
    {"smiles": "Nc1nc(N)c2cc(CNc3ccc(C(=O)NC(CC(=O)O)C(=O)O)cc3)ccc2n1", "note": "(configuration not stated)", "values": [
      {"measurement": "T/C", "setting": "endpoint: mean survival time, dose: 2.5 mg/kg/injection, schedule: Q01DX009 (ip)", "result": "100 % of control and 183 % of control"}
    ]},
    {"smiles": "c1cc2n(n1)CCN2", "values": [
      {"measurement": "T/C", "setting": "endpoint: median survival time, dose: 800.0 mg/kg/injection, schedule: Q08DX002 (ip)", "result": "120 % of control and 188 % of control"}
    ]}
  ]
}
